From the supplement of paper PMC11417369
This is one part of the list.

What follows are sequences tested on PfHDP1 homeodomain (GST-tagged) (assay: gcPBM binding intensity (ln(normalized median fluorescence intensity)); higher = stronger DNA binding).
Summary of the method: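 After 1 h on an Agilent 4 × 180k array of primer-extended double-stranded 36-bp intergenic genomic probes and negative controls, bound GST-tagged P. falciparum DNA-binding domains were detected with Alexa488 anti-GST antibody and scanned at 488 nm. The domains had been expressed in E. coli, and binding took place in 1× PBS with 1% milk, 0.2 mg/ml BSA, 0.5% salmon testes DNA and 0.03% Triton X-100. Binding intensity is the highest Masliner-normalised natural-log median intensity across replicate spots of either probe orientation.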

Sequence	gcPBM binding intensity (ln)
GCTATAATAAAATTTAAACACACGTAATATAATATA [CACACA_site2592]	6.65
GAAAAAAAAAAAAATACACACAAATTGGTATATAAC [CACACA_site6315]	6.25
TATAAAAAATATCCTTTTTTTATACATCAATATATA [TGCATGCA_negctrl_site291]	5.81
CACTAATAGTGGATTACACACATATAGATGTATATA [CACACA_site7234]	6.29
AAAAATTCTTGGCGCACACACTTTAAAAGTTAAAAA [CACACA_site6430]	6.98
AATTGTATAAATGGAATAATGACTATGATTATACAT [GTGCAC_negctrl_site188]	6.67
GTATATTTCTTTAAATGTACACATTTTTTTAAAGAG [XGTACX_site1225]	6.32
ATGTAGATATATATCTGTACGTATATGTAAATATTA [XGTACX_site1516]	6.69
AATTCTTTTTATATATTAAATATTATTAATAAGTCA [CACACA_negctrl_site1488]	6.31
ACACATTATAACAAGGTGCAATTTTTATACACATGT [GTGCAC_site9866]	9.12
ACAAAGACAATTTTGTTATATATAAAAAAAAAAAAT [CACACA_negctrl_site253]	6.54
CAAATATCTATTTAGTGTACTAATATATTCAATAAT [XGTACX_site2345]	6.31
TATATAAAACCTTATTGTACTATTAGACTATGCTTA [XGTACX_site6026]	6.07
ATAGCATATATTTTTTGTACATATGTTATATATATA [XGTACX_site2184]	7.34
TACAAATATATATGCACACACATATCTGTATATGTG [CACACA_site5663]	9.84
ATTAATTTTCCATTCACACATATATATATATATATA [CACACA_site6065]	9.42
AAGGTCATTTTATATTGTACATGAAATTGTTATGTA [XGTACX_site187]	6.15
ATATACAGATAAATGTGTACTTAAATCTATTATATT [XGTACX_site2632]	6.03
ATATATTTTGTATGTAGTACAATTTTATAATCATAT [XGTACX_site8373]	6.23

Sequence	gcPBM binding intensity (ln)
TCAATTTGGAACGGTATGCACTAATTTTATATTTTT	8.23
TATTACAAATATGGCACACATATATATATATATATT [CACACA_site3268]	6.67
AATAATGAATACACATGTACAAAAATTTTTCTTACT [XGTACX_site1962]	6.82
TTTTAAAATATCAACACACTCATTATTTTCTATATT [CACACA_site4740]	6.25
AAAATAAAAACAAAATCACACATTCCAGTTTTTTTT [CACACA_site5356]	6.12
TCATTCTATCTGTTCACACATACACAAAAAAAAAAA [CACACA_site5141]	6.67
TATATACATGTGAGAGTGCATATAGACATAAAAAAT	7.99
AAAATAAGCGTGAAACGTACATATTACATTATTATA [XGTACX_site8914]	6.3
TATTAAAAGAAAATAACACACACAAAAAAAAAAAAA [CACACA_site8661]	6.21
ATAATATATATATAGTGTACATTTGAATATATTTGA [XGTACX_site583]	6.68
AAAAAAAACAGACACACACACAAATATATAAAAATA [CACACA_site1172]	6.81
TTTTTGAAATAATGAAACAGCAAAAAAACAAAAATA [CACACA_negctrl_site221]	7.14
ATATATCAACTCATATTATTTTCTTTTATTATTTAT [CACACA_negctrl_site276]	6.47
GTATACTTAACATTCACACATATATATATATATAAA [CACACA_site4596]	6.79
AATTATTTACCTTCTTTGAAAGAACAAATGATACAA [CACACA_negctrl_site1315]	6.35
ATATATATATATATATGTACTTATAATTCTTCAATT [XGTACX_site5627]	9.44
TTTATATTTCTCTTTAGTACATATTATATTCTTTTA [XGTACX_site1618]	6.48
AATGAAAATAAATTAACACACAATTTTAATATTGTT [CACACA_site1306]	6
ATTTATCTATAATATACACACATATAACAGACATAT [CACACA_site6469]	6.56

Sequence	gcPBM binding intensity (ln)
CTTTCGGTTGGAGAGGTGCGCTTCTCCTTTATAATA	6.43
TGATAGCTAGCTATATGTACATATATATATATATAT [XGTACX_site393]	9.44
AAACATCATAAATATACACACATATATATATATATA [CACACA_site620]	9.37
TACACAAAATTTAAATGTACATTAAATATATGATGT [XGTACX_site2140]	6.37
CGAAACCATATGTACACACACATATATAAATATGTA [CACACA_site7082]	6.68
AAAACGTATCACAAAAGTACAGATAGTTATAATATA [XGTACX_site185]	6.33
TCTTAAATATACAGTTGTACTAAACAAAAAAAAAAA [XGTACX_site2639]	6.26
AAAATATACACACATATGTATATAATATTATATGTA [GTGCAC_negctrl_site496]	6.86
TATAAAAAATGATAAAGTACTTTATACACACAAATA [XGTACX_site8486]	7.02
CTAAAACAATAAATCACACATACATAGGATAATATA [CACACA_site4247]	6.48
ATTTATAATCTGTATAGTACACATATATACATGGTT [XGTACX_site2714]	6.46
ACCTCTTTGAAATATACACACTAAACATATCAACTT [CACACA_site5372]	7.32
TACATAGAGTTTGTTTGTACTCATATGCGTAAATTC [XGTACX_site4810]	6.49
AGAAAAAAAATATACACACATACGATCATACATATG [CACACA_site2171]	6.63
TCTGTAGTTTTTTACAGTACTTTTAGGTAATACATA [XGTACX_site7417]	6.08
AAAACACCCAAACACACACACACATATATATATATA [CACACA_site9119]	9.18
TTCTTGTATTTTCATAGTACATATAATGTCGTGTTA [XGTACX_site7714]	6.6
AATAAATTATTTATTGCATGTAATATGAATATTTTT [TGCATGCA_site798]	6.74
TAATGTATGAAATAAACACACAAGTAAGTACATAAA [CACACA_site2451]	6.95
